Results: the supplement of paper PMC4166925
± gives the standard deviation of the averaged measurements. The full ranking holds about 33,000 sequences; the median of “E-score (dimensionless, -0.5 to 0.5)” is about -0.049, and the highest 2% start at about 0.37. The list shows a part of the results.

Test system: T1, PmTbr T-box DNA-binding domain (GST fusion)
T1 sequence: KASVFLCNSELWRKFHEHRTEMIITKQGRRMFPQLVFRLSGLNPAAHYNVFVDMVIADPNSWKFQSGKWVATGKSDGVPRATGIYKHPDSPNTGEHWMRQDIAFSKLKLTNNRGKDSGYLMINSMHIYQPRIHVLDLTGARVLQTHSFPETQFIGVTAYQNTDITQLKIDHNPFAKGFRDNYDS
Assay: PBM E-score of 8-mer (E-score (dimensionless, -0.5 to 0.5)); Tbr is Tbrain of the sea star Patiria miniata (Pm) or the sea urchin Strongylocentrotus purpuratus (Sp); higher = stronger binding preference; most listed sequences are background and not binding sites
Conditions: the construct has about 5 more residues each side
Description: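 Universal protein-binding microarray (Agilent AMADID 016060, 60-bp probes with a 35-bp variable region) incubated with 200 nM GST-fused Patiria miniata Tbr T-box DNA-binding domain (residues 272-466) in PBS pH 7.5. Scored for every ungapped 8-mer (given with its reverse complement) by the Universal PBM Analysis Suite as E-score (modified Wilcoxon-Mann-Whitney enrichment, range -0.5 to 0.5; >0.45 counts as bound) and Z-score of median probe intensity. Two replicate arrays (datasets 1 and 2).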
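Also: 200 nM protein in PBS on universal arrays averaged over duplicate arrays.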

Row | Sequence | PBM E-score of 8-mer
1 | CAGCTGGG | -0.0516 ± 0.054
2 | CTGCCGTC | 0.0778 ± 0.055
3 | GAAATCCA | -0.049 ± 0.033
4 | AGACTACC | -0.237 ± 0.063
5 | ATCAAACC | -0.0905 ± 0.066
6 | GCATAGCC | -0.237 ± 0.0025
7 | AACGAGTA | -0.105 ± 0.021
8 | CGTGGATA | -0.109 ± 0.014
9 | AGCACACT | 0.298 ± 0.0051
10 | ATCCAGTC | -0.281 ± 0.099
11 | AAGCGGTC | 0.0277 ± 0.061
12 | ACGTTCAG | -0.0991 ± 0.042
13 | GCGGTACA | -0.0609 ± 0.064
14 | ATCAGATC | -0.152 ± 0.078
15 | CAATTGTA | -0.0453 ± 0.032
16 | ACAACCCC | 0.109 ± 0.018
17 | GATGGTAC | -0.163 ± 0.0063
18 | CCTTAGCC | 0.00468 ± 0.014
19 | TCTAAAGA | -0.237 ± 0.015
20 | ACGGGCAC | -0.059 ± 0.069
21 | AACCTTAT | -0.243 ± 0.069
22 | ACTCCGGA | -0.0374 ± 0.022
23 | AACGGATA | -0.0672 ± 0.039
24 | CCAGTCAA | 0.0172 ± 0.028
25 | AATAGATC | -0.231 ± 0.086

Row | Sequence | PBM E-score of 8-mer
26 | CGCGAGGC | 0.289 ± 0.019
27 | ATGCGAAT | 0.0955 ± 0.05
28 | AATAATGA | -0.14 ± 0.007
29 | GAAAATGA | 0.00688 ± 0.025
30 | AGACCAAG | -0.0914 ± 0.04
31 | ACCGGTAC | -0.115 ± 0.012
32 | GAATGCAA | -0.15 ± 0.032
33 | CGATAAGC | 0.124 ± 0.049
34 | TGGAGGAA | -0.151 ± 0.042
35 | AGATAGGG | -0.0901 ± 0.026
36 | CGATTCTA | -0.14 ± 0.07
37 | CTGCCAAA | 0.186 ± 0.061
38 | CTACCGCC | -0.077 ± 0.015
39 | AAAAGTCC | -0.161 ± 0.035
40 | AGTCCACT | -0.155 ± 0.021
41 | AAGAAGGT | -0.0225 ± 0.032
42 | AGAAGGCC | -0.15 ± 0.032
43 | AAGAACGG | -0.117 ± 0.048
44 | AAGTCATC | -0.117 ± 0.05
45 | ATTGCAAG | -0.00243 ± 0.039
46 | AAGGCTAT | -0.148 ± 0.013
47 | AGGCAGAA | -0.202 ± 0.015
48 | CCCGAAAG | -0.022 ± 0.025
49 | CATGTGGC | 0.0236 ± 0.011
50 | AGATCACA | 0.278 ± 0.061

Row | Sequence | PBM E-score of 8-mer
51 | CTAGCCGC | 0.0347 ± 0.027
52 | CCACTTAC | 0.201 ± 0.0076
53 | AGAGATCC | -0.189 ± 0.011
54 | GGCGCGCC | 0.233 ± 0.0099
55 | ACTACAAT | -0.018 ± 0.002
56 | ATTTCCCA | 0.0349 ± 0.076
57 | ATAACACG | 0.325 ± 0.05
58 | AGGCATCC | -0.291 ± 0.054
59 | GGAAGTTA | -0.0847 ± 0.059
60 | AATCAAAC | -0.0423 ± 0.03
61 | GGTTCATA | 0.0267 ± 0.028
62 | CCCCCCGG | -0.176 ± 0.025
63 | CTGTGAAG | 0.266 ± 0.023
64 | CCCTGTGA | 0.122 ± 0.013
65 | CCTGTTAC | 0.164 ± 0.049
66 | CGAACAGC | 0.0465 ± 0.011
67 | CGATCTAC | -0.13 ± 0.012
68 | GTTGCTAA | 0.285 ± 0.025
69 | CCAACAGG | -0.00822 ± 0.0075
70 | CTATATAC | 0.14 ± 0.028
71 | ACCTGATA | 0.157 ± 0.032
72 | CCCGTTCA | 0.0884 ± 0.064
73 | AAAGGGGG | -0.209 ± 0.04
74 | TTGACAAA | 0.329 ± 0.0096
75 | GGTACTAA | -0.0102 ± 0.088

Row | Sequence | PBM E-score of 8-mer
76 | ACAATCGT | 0.00782 ± 0.055
77 | GTGGCTAA | 0.0196 ± 0.032
78 | ACGATCCC | 0.0437 ± 0.11
79 | CCAAGCGG | -0.178 ± 0.068
80 | AGAGCAAG | -0.0904 ± 0.043
81 | ACACGAGT | 0.0609 ± 0.031
82 | CGTCCATA | -0.0391 ± 0.017
83 | GCGGTATA | -0.199 ± 0.11
84 | GGCCACCA | -0.0619 ± 0.14
85 | CGGAATTA | -0.203 ± 0.024
86 | AGAGCAGG | -0.149 ± 0.13
87 | TATCGAGA | -0.0253 ± 0.043
88 | ACAAGACT | 0.0667 ± 0.0037
89 | CCCAGGGG | -0.162 ± 0.093
90 | GGTAGCCA | -0.139 ± 0.037
91 | GGTTGCGA | 0.281 ± 0.031
92 | CGGGGTTA | -0.195 ± 0.071
93 | AATGTTGC | 0.0674 ± 0.052
94 | ATAGCAAT | -0.0274 ± 0.049
95 | AAGTTGCG | 0.235 ± 0.052
96 | CCCGCTCC | -0.0513 ± 0.051
97 | CAGGCACG | -0.104 ± 0.0019
98 | AGATTGGC | 0.0392 ± 0.026
99 | AAGGCCGC | 0.0907 ± 0.032
100 | CTTGATTA | 0.00212 ± 0.086

Row | Sequence | PBM E-score of 8-mer
101 | ATAGAGTG | 0.0802 ± 0.04
102 | CTATATCA | -0.0603 ± 0.035
103 | GGTGGACA | -0.124 ± 0.0056
104 | AAATTCGG | -0.27 ± 0.012
105 | AAAATGTA | 0.135 ± 0.081
106 | ACGTTCGA | -0.177 ± 0.025
107 | AGATGAAC | -0.2425 ± 0.0013
108 | ATGACCAG | -0.119 ± 0.011
109 | CAGGATAC | -0.146 ± 0.043
110 | CTGTGTAA | -0.116 ± 0.0057
111 | TAGGGAAA | -0.173 ± 0.033
112 | AATCATAT | -0.256 ± 0.0089
113 | AAGCCTCC | -0.181 ± 0.047
114 | GTGACAAC | 0.4452 ± 0.0036
115 | CTTTCATA | -0.0852 ± 0.022
116 | AAAATAGG | -0.0632 ± 0.036
117 | CCGGCGCC | 0.188 ± 0.06
118 | GAGATGAA | -0.168 ± 0.058
119 | GCTAGAGA | 0.0101 ± 0.053
120 | ACGGTTCG | 0.147 ± 0.043
121 | GAAAGACC | -0.0227 ± 0.0037
122 | CGACTCTC | -0.1842 ± 0.00057
123 | TACACAAA | -0.0427 ± 0.021
124 | AACTACAC | 0.169 ± 0.068
125 | CCGCCAAA | 0.176 ± 0.012

Row | Sequence | PBM E-score of 8-mer
126 | CCACCCAG | -0.239 ± 0.032
127 | AATAGCTA | -0.155 ± 0.065
128 | GCTCTTAA | -0.281 ± 0.03
129 | GGGGTAGA | -0.22 ± 0.073
130 | CCTGTGAA | 0.306 ± 0.0045
131 | GTATGGAA | -0.238 ± 0.057
132 | GATAGTCA | 0.0183 ± 0.041
133 | ATCTATAA | -0.0367 ± 0.0086
134 | AAAGCATA | -0.036 ± 0.079
135 | CATATTCC | -0.0721 ± 0.054
136 | CAGGTACA | -0.15 ± 0.0089
137 | GGGCTCCA | -0.348 ± 0.018
138 | ATGTACAC | -0.148 ± 0.084
139 | CCCGGGGC | -0.198 ± 0.11
140 | CCCTGACG | -0.0465 ± 0.0053
141 | GAACCATC | -0.106 ± 0.059
142 | CACGCGGA | 0.0819 ± 0.038
143 | GCGGATAA | -0.0267 ± 0.011
144 | AACTCAGT | -0.226 ± 0.0079
145 | GACCAAAA | -0.0705 ± 0.052
146 | ATTGGCTG | -0.151 ± 0.0097
147 | GGATTCAC | 0.116 ± 0.02
148 | AGGCCTCC | -0.154 ± 0.012
149 | CGGCTCAA | -0.267 ± 0.042
150 | TCACCTCA | 0.437 ± 0.00059

Row | Sequence | PBM E-score of 8-mer
151 | TATTGTAA | 0.0639 ± 0.12
152 | AGCCCTAG | -0.107 ± 0.038
153 | GCTAACCA | 0.201 ± 0.04
154 | CGTGATGA | 0.26 ± 0.025
155 | ATGCTAAT | 0.0347 ± 0.061
156 | CATTAAAA | -0.256 ± 0.028
157 | GGAGGCCC | -0.437 ± 0.0096
158 | CGCCGGGC | 0.0263 ± 0.062
159 | AAGTCGCT | 0.202 ± 0.026
160 | GAGCTTAC | -0.0863 ± 0.054
161 | CTTCGAGC | 0.0317 ± 0.071
162 | AAAATCTC | 0.00161 ± 0.011
163 | GCCAAGAC | -0.0776 ± 0.0095
164 | CTGACCAC | 0.0865 ± 0.013
165 | ATTCGCCA | 0.197 ± 0.0034
166 | CCAAACTC | -0.173 ± 0.0097
167 | AACGCTCG | 0.0744 ± 0.0061
168 | CGACCTAC | -0.13 ± 0.0019
169 | ACCCGCGC | 0.122 ± 0.013
170 | GATGGGGC | -0.271 ± 0.044
171 | GGCCTACA | -0.189 ± 0.039
172 | AAAATCGC | 0.23 ± 0.068
